# Residue numbers refer to the chain shown, from its start. The list shows a part of the results.
# T1: RBFOX1 RRM RbFoxmut (Fox-RRM*) (Homo sapiens, UniProt Q9NWB1 109-208, R118D;E147R;N151S;E152T)
# T1 sequence: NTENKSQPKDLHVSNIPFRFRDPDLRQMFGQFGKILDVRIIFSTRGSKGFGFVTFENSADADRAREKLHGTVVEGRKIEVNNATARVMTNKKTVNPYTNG
# B1: UUUCGCA (DNA:RNA)
# RNA: GGGAGACCGGAAUUCAGAUUGUCCUUUCGCAUUAAAUCCCGUCGUAGCCACCA
# DNA 1: CAATCTGAATTCCGGTCTCCC
# DNA 2: TGGTGGCTACGACGGGATT
# B2: CGUAGAA (DNA:RNA)
# RNA: B1 RNA with U25C, U26G, C28A, C30A
# DNA 1: CAATCTGAATTCCGGTCTCCC
# DNA 2: TGGTGGCTACGACGGGATT
# B3: UUUUUGA (DNA:RNA)
# RNA: B1 RNA with C28U, G29U, C30G
# DNA 1: CAATCTGAATTCCGGTCTCCC
# DNA 2: TGGTGGCTACGACGGGATT
# B4: GAUAACG (DNA:RNA)
# RNA: B1 RNA with U25G, U26A, C28A, G29A, A31G
# DNA 1: CAATCTGAATTCCGGTCTCCC
# DNA 2: TGGTGGCTACGACGGGATT
# B5: AGGUUCC (DNA:RNA)
# RNA: B1 RNA with U25A, U26G, U27G, C28U, G29U, A31C
# DNA 1: CAATCTGAATTCCGGTCTCCC
# DNA 2: TGGTGGCTACGACGGGATT
# B6: AGCUCUC (DNA:RNA)
# RNA: GGGAGACCGGAAUUCAGAUUGUCCAGCUCUCUUAAAUCCCGUCGUAGCCACCA
# DNA 1: CAATCTGAATTCCGGTCTCCC
# DNA 2: TGGTGGCTACGACGGGATT
# B7: UGGGCGA (DNA:RNA)
# RNA: B6 RNA with A25U, C27G, U28G, U30G, C31A
# DNA 1: CAATCTGAATTCCGGTCTCCC
# DNA 2: TGGTGGCTACGACGGGATT
# B8: ACCGGCC (DNA:RNA)
# RNA: B6 RNA with G26C, U28G, C29G, U30C
# DNA 1: CAATCTGAATTCCGGTCTCCC
# DNA 2: TGGTGGCTACGACGGGATT
# B9: AGAGCAU (DNA:RNA)
# RNA: B6 RNA with C27A, U28G, U30A, C31U
# DNA 1: CAATCTGAATTCCGGTCTCCC
# DNA 2: TGGTGGCTACGACGGGATT
# Target: T1, RBFOX1 RRM RbFoxmut (Fox-RRM*)
# Assay: EMSA; HiTS-Eq, 1 nM pool, 10 min; buffer printed only for the single-RNA assays: 10 mM Tris pH 7.5, 150 mM NaCl, 3.4 mM EDTA, 0.001% NP-40, 30 C
# Settings: tags: His6 N-terminal (pET28a); label: 5' 32P
# Procedure, shortened: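 Purified RbFox RRM (wild type or mutant) was equilibrated for 10 min in 50 µL with 1 nM of a 5′-radiolabelled pool of RNA with 7 randomized nucleotides, its flanks annealed to DNA oligonucleotides, across increasing protein concentrations. Free RNA was separated by 8% native PAGE, excised, reverse-transcribed, PCR-barcoded and sequenced on an Illumina HiSeq 2500. Relative association constants came from read-count changes of each variant against the control reaction, normalised to the cognate motif.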
row,Binder,binding signal
1,B1,0.151 KA relative to UGCAUGU
2,B2,0.134 KA relative to UGCAUGU
3,B3,0.0679 KA relative to UGCAUGU
4,B4,0.0556 KA relative to UGCAUGU
5,B5,0.112 KA relative to UGCAUGU
6,B6,0.0391 KA relative to UGCAUGU
7,B7,0.118 KA relative to UGCAUGU
8,B8,0.128 KA relative to UGCAUGU
9,B9,0.0996 KA relative to UGCAUGU
